Some of the results follow.
Key:
Assay in all cases: glycan array binding signal (z-score within array); higher = stronger binding
Conditions in all cases: glycan notation: IUPAC condensed, linker removed
[1] = biological target: Gal(b1-4)GlcNAc(b1-2)Man(a1-6)[Man(a1-3)]Man(b1-4)GlcNAc(b1-4)GlcNAc
Procedure, shortened: (§1)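 Glycan array data were curated from 3228 arrays in the Consortium for Functional Glycomics database and kept only where the protein sequence was available. Glycan names were converted to IUPAC-condensed notation, and columns mapping to the same glycan were averaged. The binding signal is a within-array Z-score, averaged across arrays of the same protein sequence at different concentrations or buffers and across linkers. Negative Z-scores can be read as non-binding.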

[2] = biological target: Gal(b1-4)GlcNAc(b1-2)[Gal(b1-4)GlcNAc(b1-4)]Man(a1-3)[Gal(b1-4)GlcNAc(b1-2)Man(a1-6)]Man(b1-4)GlcNAc(b1-4)GlcNAc
Procedure, shortened: as §1

[3] = biological target: Gal(b1-4)GlcNAc(b1-2)[Gal(b1-4)GlcNAc(b1-4)]Man(a1-3)[Gal(b1-4)GlcNAc(b1-2)[Gal(b1-4)GlcNAc(b1-6)]Man(a1-6)]Man(b1-4)GlcNAc(b1-4)GlcNAc
Procedure, shortened: as §1

[4] = biological target: Gal(b1-4)GlcNAc(b1-2)[Gal(b1-4)GlcNAc(b1-4)]Man(a1-3)[GlcNAc(b1-4)][Gal(b1-4)GlcNAc(b1-2)Man(a1-6)]Man(b1-4)GlcNAc(b1-4)GlcNAc
Procedure, shortened: as §1

[5] = biological target: Gal(b1-4)GlcNAc(b1-2)[Gal(b1-4)GlcNAc(b1-4)]Man(a1-3)[GlcNAc(b1-4)][Gal(b1-4)GlcNAc(b1-2)[Gal(b1-4)GlcNAc(b1-6)]Man(a1-6)]Man(b1-4)GlcNAc(b1-4)GlcNAc
Procedure, shortened: as §1

[6] = biological target: Gal(b1-4)GlcNAc(b1-2)[Gal(b1-4)GlcNAc(b1-6)]Man(a1-6)[Gal(b1-4)GlcNAc(b1-2)Man(a1-3)]Man(b1-4)GlcNAc(b1-4)GlcNAc
Procedure, shortened: as §1

[7] = biological target: Gal(b1-4)GlcNAc(b1-2)[Gal(b1-4)GlcNAc(b1-6)]Man(a1-6)[GlcNAc(b1-4)][Gal(b1-4)GlcNAc(b1-2)Man(a1-3)]Man(b1-4)GlcNAc(b1-4)GlcNAc
Procedure, shortened: as §1

[8] = biological target: Gal(b1-4)GlcNAc(b1-3)Gal(b1-3)GlcNAc
Procedure, shortened: as §1

[9] = biological target: Gal(b1-4)GlcNAc(b1-3)Gal(b1-4)Glc
Procedure, shortened: as §1

[10] = biological target: Gal(b1-4)GlcNAc(b1-3)Gal(b1-4)GlcNAc
Procedure, shortened: as §1

[11] = biological target: Gal(b1-4)GlcNAc(b1-3)Gal(b1-4)GlcNAc(b1-3)Gal(b1-4)GlcNAc
Procedure, shortened: as §1

[12] = biological target: Gal(b1-4)GlcNAc(b1-3)Gal(b1-4)[Fuc(a1-3)GlcNAc(b1-6)]Gal(b1-4)Glc
Procedure, shortened: as §1

[13] = biological target: Gal(b1-4)GlcNAc(b1-3)Gal(b1-4)[Fuc(a1-3)]GlcNAc(b1-3)Gal(b1-4)[Fuc(a1-3)]GlcNAc
Procedure, shortened: as §1

[14] = biological target: Gal(b1-4)GlcNAc(b1-3)GalNAc
Procedure, shortened: as §1

[15] = biological target: Gal(b1-4)GlcNAc(b1-3)[Gal(b1-4)GlcNAc(b1-6)]Gal(b1-4)GlcNAc
Procedure, shortened: as §1

[16] = biological target: Gal(b1-4)GlcNAc(b1-3)[Gal(b1-4)GlcNAc(b1-6)]GalNAc
Procedure, shortened: as §1

[17] = biological target: Gal(b1-4)GlcNAc(b1-3)[GlcNAc(b1-6)]Gal(b1-4)GlcNAc
Procedure, shortened: as §1

[18] = biological target: Gal(b1-4)GlcNAc(b1-6)Gal(b1-4)GlcNAc
Procedure, shortened: as §1

[19] = biological target: Gal(b1-4)GlcNAc(b1-6)GalNAc
Procedure, shortened: as §1

[20] = biological target: Gal(b1-4)GlcNAc(b1-6)[Gal(b1-3)]GalNAc
Procedure, shortened: as §1

[21] = biological target: Gal(b1-6)Gal
Procedure, shortened: as §1

[22] = biological target: Gal3S(b1-3)GalNAc
Procedure, shortened: as §1

[23] = biological target: Gal3S(b1-3)GlcNAc
Procedure, shortened: as §1

[24] = biological target: Gal3S(b1-3)[Fuc(a1-4)]GlcNAc
Procedure, shortened: as §1

[25] = biological target: Gal3S(b1-4)Glc
Procedure, shortened: as §1

[26] = biological target: Gal3S(b1-4)Glc6S
Procedure, shortened: as §1

[27] = biological target: Gal3S(b1-4)GlcNAc
Procedure, shortened: as §1

[28] = biological target: Gal3S(b1-4)GlcNAc6S
Procedure, shortened: as §1

[29] = biological target: Gal3S(b1-4)[Fuc(a1-3)]Glc
Procedure, shortened: as §1

[30] = biological target: Gal3S(b1-4)[Fuc(a1-3)]Glc6S
Procedure, shortened: as §1

[31] = biological target: Gal3S4S(b1-4)GlcNAc
Procedure, shortened: as §1

[32] = biological target: Gal3S6S(b1-4)GlcNAc
Procedure, shortened: as §1

[33] = biological target: Gal3S6S(b1-4)GlcNAc6S
Procedure, shortened: as §1

[34] = biological target: Gal4S(b1-4)GlcNAc
Procedure, shortened: as §1

[35] = biological target: Gal4S6S(b1-4)GlcNAc
Procedure, shortened: as §1

[36] = biological target: Gal6S(b1-3)GlcNAc
Procedure, shortened: as §1

[37] = biological target: Gal6S(b1-3)GlcNAc6S
Procedure, shortened: as §1

[38] = biological target: Gal6S(b1-4)Glc
Procedure, shortened: as §1

B1: SCA (Schizophyllum commune) (protein)
chain: MGIDQGVYLITNAGSGTAATLKDGYVKGWERIKGKEQLNQLWFVKSVKTSASDPGYAAFNLATNKVLDLEKGLADRGTPILGWDYHEGDNQHWVIKKQADGKYYKIQSVKTQTFVDLNNGGKDNGTKIQGWVGSWDETNSHQRWVFNQFSATGSRIKSILDTHPKIHGKVIVEWPDRIYFTPDQYIFEAIWAKTGLADIKPRDPLFQSEAYEKVFKGWVVSRAQEIIKVDGFDILVGSLSLVEKSTQKIKVLDVSVRTSDDKSPDLSQIVFFDPESGRTLVDIPEGYEVNSVII
glycan array binding signal (z-score) [1]: -0.161 | glycan array binding signal (z-score) [2]: -0.097 | glycan array binding signal (z-score) [3]: 0.585 | glycan array binding signal (z-score) [4]: -0.15 | glycan array binding signal (z-score) [5]: 0.172 | glycan array binding signal (z-score) [6]: 0.05 | glycan array binding signal (z-score) [7]: -0.134 | glycan array binding signal (z-score) [8]: -0.161 | glycan array binding signal (z-score) [9]: -0.16 | glycan array binding signal (z-score) [10]: -0.163 | glycan array binding signal (z-score) [11]: -0.12 | glycan array binding signal (z-score) [12]: -0.156 | glycan array binding signal (z-score) [13]: -0.154 | glycan array binding signal (z-score) [14]: -0.159 | glycan array binding signal (z-score) [15]: -0.048 | glycan array binding signal (z-score) [16]: -0.124 | glycan array binding signal (z-score) [17]: -0.159 | glycan array binding signal (z-score) [18]: -0.162 | glycan array binding signal (z-score) [19]: -0.148 | glycan array binding signal (z-score) [20]: -0.144 | glycan array binding signal (z-score) [21]: -0.162 | glycan array binding signal (z-score) [22]: -0.159 | glycan array binding signal (z-score) [23]: -0.162 | glycan array binding signal (z-score) [24]: -0.16 | glycan array binding signal (z-score) [25]: -0.162 | glycan array binding signal (z-score) [26]: -0.159 | glycan array binding signal (z-score) [27]: -0.162 | glycan array binding signal (z-score) [28]: -0.161 | glycan array binding signal (z-score) [29]: -0.16 | glycan array binding signal (z-score) [30]: -0.153 | glycan array binding signal (z-score) [31]: -0.16 | glycan array binding signal (z-score) [32]: -0.161 | glycan array binding signal (z-score) [33]: -0.156 | glycan array binding signal (z-score) [34]: -0.163 | glycan array binding signal (z-score) [35]: -0.162 | glycan array binding signal (z-score) [36]: -0.158 | glycan array binding signal (z-score) [37]: -0.158 | glycan array binding signal (z-score) [38]: -0.161

Reference: the supplement of paper PMC8728848
